# Source: the supplement of paper PMC11417369
# Some of the results follow.
# System: PfHDP1 homeodomain (GST-tagged)
# Test: gcPBM binding intensity (ln(normalized median fluorescence intensity)); higher = stronger DNA binding
# Summary of the method: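 Binding intensity values are the highest Masliner-normalised natural-log median intensity among replicate spots of either probe orientation. The binding step lasted 1 h in 1× PBS with 1% milk, 0.2 mg/ml BSA, 0.5% salmon testes DNA and 0.03% Triton X-100, using GST-tagged P. falciparum DNA-binding domains expressed in E. coli on an Agilent 4 × 180k array of primer-extended double-stranded 36-bp intergenic genomic probes plus negative controls. Alexa488 anti-GST antibody and a 488 nm scan detected bound protein.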
row,Sequence,gcPBM binding intensity (ln)
1,ATGTTTATTTATTTATGTACTTATATATTTATATAT [XGTACX_site7924],6.78
2,AATAAAAATAAAAATTGTACACTTTTTTAATATTTA [XGTACX_site892],6.18
3,CAAAATATTTATATCACACATATAAATAAAAATAAA [CACACA_site6028],6.47
4,TATTAATTTCACCTTTCACATATGGAAAAAAAAAAA [CACACA_negctrl_site1243],6.64
5,AATGTGCACACGCGTACACACAAAAAAAGAAAAAAA [CACACA_site7031],10.2
6,TATTATTTGAGTAGTTGTACTCATTAATATATAAAA [XGTACX_site3468],5.98
7,ATTTTATTTTTTTGAAGTACGAATTCCGAGAAGAAA [XGTACX_site43],6.6
8,TATTCAAAAATATAAACAATGAAACAGTATAATATG [CACACA_negctrl_site1482],6.45
9,TATAGTTCTTCTATTTGTACATATATTATTATTTAA [XGTACX_site895],6.39
10,AAGAAAAAGACTTCATGAAAAAGAATTTTTTTAATT [TGCATGCA_negctrl_site473],5.86
11,TTATAATCAATGAATACACACATATATTTAATTAAT [CACACA_site3613],6.4
12,ATATATTTTTTTTTTATTTTATTATTATAATTTATC [XGTACX_negctrl_site16],6.33
13,TAATATTATTTTTCAGTGCAATATAACCTTAGAATT [GTGCAC_site9417],9.18
14,TAATATAATAATAATTGTACTTTTCATAGTGTAATT [XGTACX_site8152],6.1
15,ATTATAATTATCAAGGTGCGTGTATTATAATAAATA [GTGCAC_site9917],7.29
16,AAAAAAAAAAAACACACACACAAAATAAACAAACAA [CACACA_site2721],6.96
17,AATAAATTAAATAAAAATGTTTAACATAAAATATGA [GTGCAC_negctrl_site373],6.4
18,ATATATCAAGGGAGTGAATGTTATGCATATGAATAT [TGCATGCA_negctrl_site573],6.74
19,GGATATTATATAAAGTGTACAAGACAAATATATACA [XGTACX_site8173],6.15
20,AAATTAACAAACTGTAGTACTAACAATATATACAAA [XGTACX_site1772],6.41
21,TATTCTTACAAAAGTAGTACAATCATTCATATTTTT [XGTACX_site631],6.42
22,AAAAATGAAAAATGAAAAATGAAAAATGAAAAATAA [CACACA_negctrl_site695],6.55

row,Sequence,gcPBM binding intensity (ln)
1,TAGTTTCAAGTAGGACGTACATATAAAAGGATTTTT [XGTACX_site7136],6.43
2,AAAGAAATGAAATATACACACATACATATATACATA [CACACA_site9335],6.36
3,AATTAAAAAAGTAATTAACACACAATAATGTAATGC [CACACA_site9388],6.51
4,GTTCTGTAAATACGTGCACACACAAATCACAAATGT [CACACA_site7999],9.67
5,TTTTTTTTCTTTTTTTGTACATAATAATATATAAAT [XGTACX_site6778],5.98
6,GATATATTTTATATATGTACATACAATGGTAAATAT [XGTACX_site2759],6.68
7,AACTGTAAAAAATATAAACACACATAGAAATATATA [CACACA_site8002],6.49
8,TATGTGTGAAAAAAATGTACATATATATAAATTATA [XGTACX_site7202],6.65
9,ATATATATATATAATAGTACATATATTTTGAAAGAT [XGTACX_site5800],8.75
10,TATATAAACATATAAACATGCAATATATATATGTTA [TGCATGCA_site765],6.06
11,AAAAAAATTAAATCAAGTACTCATTCTTAAATTATA [XGTACX_site1274],5.76
12,AAAAATATATAACAAAGTACATATATATTTAGTAAT [XGTACX_site8791],6.28
13,GGAAAAAAACTTATGAGTACACATAAATATAGCACA [XGTACX_site6686],7.55
14,ATATTGATACATCCAATACACACTACATATAATGAT [CACACA_site1874],6.82
15,TATATTTTCTATAGGTGTACTCCACATGCGGTGTTA [XGTACX_site7471],6.17
16,AATATATATAAATATTGTACAAAAATATATATATAT [XGTACX_site2910],9.01
17,TCCCTCTTTTTATTCTCACACACGTTTATATATAAA [CACACA_site1644],7.62
18,ATATATGATGTAAAAGCACACATATATATATATATA [CACACA_site9330],9.34
19,TATTATTATCTTACCACACACAATGTACGAAAAGAT [CACACA_site352],6.51
20,TGTAGGTATTATTATACACACATAAAAAAAAAAAAA [CACACA_site3598],6.57
21,TAAAATATTATAAAATGTACAAAACATATAAATATA [XGTACX_site5315],6.14
22,AAATTAAAAAGACATTCACACATTTTCATCTTAACA [CACACA_site5221],6.19
